Data published in paper PMC4336329 (PLoS ONE, 2015).
About 2,200 (0.71%) of roughly 310,000 compounds showed an effect of 50% or more. Effects have a minus sign here. The list shows a part of the results.

Each compound was assayed against human ether-à-go-go-related gene (hERG) potassium channel (human, UniProt Q12809) (assay: primary screen, population patch clamp on CHO cells stably expressing hERG).
human ether-à-go-go-related gene (hERG) potassium channel, sequence (Q12809 whole entry, looked up): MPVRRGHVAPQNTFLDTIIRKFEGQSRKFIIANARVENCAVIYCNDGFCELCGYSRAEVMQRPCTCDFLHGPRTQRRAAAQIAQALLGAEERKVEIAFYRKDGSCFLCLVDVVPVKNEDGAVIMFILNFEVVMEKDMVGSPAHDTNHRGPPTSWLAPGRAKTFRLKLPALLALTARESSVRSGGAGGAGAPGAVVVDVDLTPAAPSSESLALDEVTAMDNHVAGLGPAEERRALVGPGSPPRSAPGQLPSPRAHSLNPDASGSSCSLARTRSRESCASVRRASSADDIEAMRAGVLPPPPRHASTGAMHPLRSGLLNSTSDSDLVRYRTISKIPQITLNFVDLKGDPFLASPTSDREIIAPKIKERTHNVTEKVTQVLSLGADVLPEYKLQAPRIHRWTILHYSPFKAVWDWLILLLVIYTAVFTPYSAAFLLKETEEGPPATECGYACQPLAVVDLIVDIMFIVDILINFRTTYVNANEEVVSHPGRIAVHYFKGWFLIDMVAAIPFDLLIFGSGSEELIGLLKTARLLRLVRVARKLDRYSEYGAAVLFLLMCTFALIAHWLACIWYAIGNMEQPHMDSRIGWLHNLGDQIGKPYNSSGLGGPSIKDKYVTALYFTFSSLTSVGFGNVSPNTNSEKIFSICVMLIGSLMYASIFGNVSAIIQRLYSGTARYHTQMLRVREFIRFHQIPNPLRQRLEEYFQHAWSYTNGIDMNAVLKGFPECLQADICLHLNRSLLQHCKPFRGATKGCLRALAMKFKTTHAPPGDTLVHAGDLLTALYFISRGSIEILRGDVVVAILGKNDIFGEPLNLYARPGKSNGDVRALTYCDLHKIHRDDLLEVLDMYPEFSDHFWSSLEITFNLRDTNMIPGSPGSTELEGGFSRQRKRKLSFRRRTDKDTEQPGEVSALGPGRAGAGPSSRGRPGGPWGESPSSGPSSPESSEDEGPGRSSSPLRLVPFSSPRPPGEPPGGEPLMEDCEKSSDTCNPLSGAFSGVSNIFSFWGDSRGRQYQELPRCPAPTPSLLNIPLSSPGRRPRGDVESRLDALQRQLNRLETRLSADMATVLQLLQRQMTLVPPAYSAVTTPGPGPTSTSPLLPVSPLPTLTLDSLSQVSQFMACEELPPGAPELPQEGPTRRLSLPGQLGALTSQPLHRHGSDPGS

SMILES	hERG current change (%, negative = inhibition) at 1uM
CCNc1c(NCC)c(=O)c1=O	12.9%
Cc1nnc(SCC(=O)NC2CCCC2)n1-c1ccccc1	3.46%
COc1cccc(N2CCN(C(=O)CN(c3cc(C)cc(C)c3)S(=O)(=O)c3c(C)noc3C)CC2)c1	4.95%
O=C(/C=C/c1cccc([N+](=O)[O-])c1)OCC(=O)N1CCOCC1	21.3%
CC(OC(=O)c1nsc(Cl)c1Cl)C(=O)NCc1ccco1 (centres unmarked)	12.5%
Cc1ccc(SC(C)C(=O)NCCC2=CCCCC2)cc1 (centres unmarked)	10.1%
CCc1cc(/C(Cc2ccccn2)=N\O)c(O)cc1O	5.24%
NC(=O)c1cn(-c2ccccc2)nc1-c1cccnc1	3.49%
CC(=O)N(C)Cc1ccc(C(=O)CSc2nnc(C3CC3)n2C2CC2)cc1	4.35%
Cc1cc(N/N=C/c2ccc(O)cc2)c2cccc(C)c2n1	-3.41%
O=C(CSc1nc2ccccc2o1)N1CCN(c2ccccc2)CC1	16.2%
CCOP(=O)(c1ccccc1Cl)C1(O)CCCCC1 (centres unmarked)	-3.79%
COc1ccc2nc(Cl)c(C3CC(c4ccco4)=NN3C(=O)CCCC(=O)O)cc2c1 (centres unmarked)	12.1%
COc1cc(C(C[N+](=O)[O-])c2c(N)n(C)c(=O)n(C)c2=O)ccc1O (centres unmarked)	10.4%
COc1ccccc1NC(=O)c1ccc(Br)o1	9.97%
Cc1c(C(=O)NCCN2CCOC2=O)oc2c(F)cccc12	17.7%
N#CC1(NC(=O)COC(=O)/C=C/c2ccc3ccccc3n2)CCCCC1	15.6%
COc1ccc(OC)c(NC(=O)CSc2nc3ccccc3c(=O)n2CC2CCCO2)c1 (centres unmarked)	3.62%
CCOc1ccc(N2C(=O)c3ccccc3NC2(C)CC)cc1 (centres unmarked)	8.96%
COC(=O)c1ccccc1NC(=O)CSc1nnnn1-c1ccc(C)cc1C	14.1%
O=C(COc1ccc(/C=C2/NC(=O)NC2=O)cc1)Nc1ccc(F)cc1	11.5%
CN(C)C1(CNC(=S)Nc2ccccc2C(F)(F)F)CCCCC1	8.48%

SMILES	hERG current change (%, negative = inhibition) at 1uM
Cc1cc(CNCc2cn(C)nc2-c2ccc(Oc3ccccc3)cc2)on1	8.99%
CCn1cc(SCC(=O)N2CCc3ccccc32)c2ccccc21	7.38%
COc1ccc(/C=C2\SC(=S)N(CC(=O)OCC(=O)Nc3cc(Cl)cc(Cl)c3)C2=O)cc1	5.17%
Cc1ccccc1NS(=O)(=O)c1cc(C(=O)N2CCCC2)ccc1Cl	-0.425%
Nc1nc2ccccc2n1/N=C/c1cccnc1	13.6%
O=C(CN1CCN(Cc2ccccc2)CC1)N/N=C\C=C/c1ccco1	7.28%
COc1ccc(C2=NN(CN3C(=O)C(=O)c4ccccc43)C(c3cccc([N+](=O)[O-])c3)C2)cc1 (centres unmarked)	5.82%
CCOc1ccccc1C(=O)N1CCC(n2nnc3cc(C(F)(F)F)ccc32)CC1	-14.2%
CS(=O)(=O)c1ccc2nc(NC(=O)c3ccc(NS(=O)(=O)c4ccc(F)c(F)c4)cc3)sc2c1	11.8%
Cc1noc(C)c1-c1nc(CS(=O)(=O)c2ccc(F)cc2)no1	13.1%
CC(C)[C@H](NC(=O)c1ccccc1)C(=O)OCC(=O)Nc1ccc2c(c1)OCCO2	-4.16%
CC1=C(C(=O)Nc2ccccn2)C(c2ccc(Cl)cc2Cl)NC(=S)N1 (centres unmarked)	2.95%
COc1ccc2cc(C(C)C(=O)OC(C)C)ccc2c1 (centres unmarked)	14.6%
Cc1nc2cc(F)ccc2n1C1CCN(Cc2nnnn2CCc2ccccc2)CC1.Cl	-21.7%
CC(SCc1cc(=O)n2c([nH]c3ccccc32)c1C#N)C(=O)O (centres unmarked)	18%
O=C(NCCc1c[nH]c2ccccc12)c1ccc(Cl)cc1	-3.43%
CC(=O)Nc1ccccc1C(=O)C(=O)Nc1cccc(C(=O)NCc2ccc(C)cc2)c1	6.21%
Cc1ccc(-c2nc3s/c(=C\c4ccco4)c(=O)n3n2)cc1	5.53%
COc1ccccc1NC(=O)CCC(=O)Nc1nnc(C2CCCCC2)s1	10.7%
O=C(N/N=C/c1ccccc1OC(F)F)NC1CCCCC1	18.2%
Cc1ccc(/C=N/NC(=O)c2cc3ccccc3cc2O)o1	9.58%
C=CCn1cccc(C(=O)Nc2ccc(C)c(C)c2)c1=O	-24.1%

SMILES	hERG current change (%, negative = inhibition) at 1uM
S=c1[nH]nc(C2COc3ccccc3O2)o1 (centres unmarked)	-7.88%
CCOc1ccc(N=C2SC(C(=O)O)CC(=O)N2C)cc1 (centres unmarked)	8.33%
CCCNC(=O)CCn1nc(-c2ccc(C)cc2)c2ccccc2c1=O	9.81%
COc1ccc2c(=O)c3c(=O)n(-c4ccc(C)cc4)c(-c4ccccc4)nc3oc2c1	15.3%
CCC(C)[C@H](NC(=O)Nc1ccccc1F)C(=O)O (some centres unmarked)	8.49%
CC1CC(C)CN(CCCNC(=O)Cn2ncn3cccc3c2=O)C1 (centres unmarked)	-0.368%
CCOC(=O)N1CCN(S(=O)(=O)c2ccc(OC)c(Br)c2)CC1	5.8%
CN(C)N1C(N)=C(C#N)C(c2cccc(Cl)c2)C2=C1CCCC2=O (centres unmarked)	7.91%
Cc1ccc(C)c(NC(NC(=O)c2ccccn2)C(Cl)(Cl)Cl)c1 (centres unmarked)	10.3%
Cl.Fc1ccc(C(c2nnnn2C2CCCC2)N2CCN(Cc3ccncc3)CC2)cc1 (centres unmarked)	-2.22%
CNC(=S)N(CCc1c(C)[nH]c2ccc(C)cc12)Cc1cccnc1	-5.65%
C#CCOCCOCCOCCNc1nc(N2CCN(C(=O)CCCCCCCCCCNC(=O)[C@H](CCCCN)n3cc(C[C@@H](C)CC)nn3)CC2)nc(N2CCN(C(=O)CCCCCCCCCCNC(=O)[C@@H]([C@H](C)O)n3cc(C)nn3)CC2)n1	9.17%
CC1CCCC(C)N1CCCNC(=O)c1csc2c1CCCCC2 (centres unmarked)	-13.5%
Cc1cc[n+](CC(=O)c2ccc(NC(=O)c3ccccc3)cc2)c2ccccc12.[Br-]	13%
COC(=O)c1ccc(-c2c(-c3ccccc3)ncc3cc(F)ccc23)cc1	13.3%
COc1cccc(C(=O)Nc2ncc3c(n2)CC(C)CC3=O)c1 (centres unmarked)	16.5%
CCOC(=O)c1[nH]nc(-c2c(O)cc(C)cc2O)c1-c1csc(C)n1	13.4%
Nc1nc2ccccc2n1CCN1CCCC1	9.69%
Cc1cnc(C(=O)Nc2ccccc2C(=O)N2CCOCC2)cn1	14.9%
NS(=O)(=O)c1ccc(CNS(=O)(=O)c2cccc3nonc23)cc1	15.7%
COc1ccc(NC(=O)CNC(=O)Cn2ccc3ccccc3c2=O)c(OC)c1	13.3%
CCc1nc(SCC(=O)c2ccc(Cl)s2)c2oc3ccccc3c2n1	9.25%

SMILES	hERG current change (%, negative = inhibition) at 1uM
CCCCC#Cc1ccccc1CC(=O)Nc1ccccc1	-4.69%
NC(=O)C(=O)N/N=C/c1c[nH]c2ccc(Br)cc12	0.718%
COc1cccc(C(c2nnnn2Cc2ccco2)N2CCN(c3cccc(C)c3C)CC2)c1OC (centres unmarked)	-0.822%
CC(C)NC(=O)CCCc1cn(C)c2ccccc12	17.9%
O=C(NC(Cc1c[nH]c2ccccc12)C(=O)N/N=C/c1ccc(Br)cc1)c1cccs1 (centres unmarked)	12.5%
COc1ccc(/C=C2\SC(=O)N(CCCC(=O)Nc3ccc(C(=O)O)cc3)C2=O)cc1OC	10.3%
O=C(COC(=O)c1ccc(Cl)c(S(=O)(=O)N2CCCC2)c1)NCc1cccs1	3.43%
COc1ccc(C(=O)NNC(=O)c2cnccn2)cc1[N+](=O)[O-]	7.9%
COC(=O)c1ccc2nc(NC(=O)CN3C(=O)CCC3=O)sc2c1	14.3%
Fc1ccc(-n2c(-c3ccc4c(c3)OCO4)n[nH]c2=S)cc1Cl	8.94%
CN(CC(=O)Nc1ccc(F)cc1)C(=O)COC(=O)CSc1ccc(F)cc1	4.05%
COc1ccc(NS(=O)(=O)c2ccc(N3CCN(CCO)CC3)c([N+](=O)[O-])c2)cc1	19.6%
CC1CCCCN1Cc1ccc(-c2nnn(CC(=O)NC3CCCCC3)n2)cc1 (centres unmarked)	11.7%
CCOc1ccccc1C1CC(c2cccs2)=NN1S(C)(=O)=O (centres unmarked)	4.46%
COc1cc(C(c2nnnn2C2CCCC2)N2CCN(C(=O)c3ccco3)CC2)cc(OC)c1OC.Cl (centres unmarked)	11.8%
O=C(N/N=C/c1ccc2c(c1)OCO2)c1cc(-c2ccccc2)nc2ccccc12	19.5%
CC1(C)Cc2c(sc(NC(=O)C(=O)N3CCCC3)c2C(N)=O)CO1	0.912%
Cc1cccc(C(=O)Nc2onc(C)c2C#N)c1	13.8%
CCN(CC(=O)Nc1ccc(NC(C)=O)cc1)C(=O)c1ccccc1CCc1ccccc1	14.4%
CN(CC(O)COc1ccc(S(=O)(=O)N2CCOCC2)cc1Cl)C1CCCCC1.Cl (centres unmarked)	-0.0085%
